Results: the supplement of paper PMC12632987
The full ranking holds about 2,300 sequences; the median of “median log2 fold change of GCK-ALFA target abundance (FLAG IP / Myc IP barcode read proportion)” is about 0.095, and the lowest 2% start at about -0.47. This is one part of the list.

B1: LC3A_free_46_2418 (protein)
chain: YRGIVEADLLGLTEEQVEEVIERVKEKAKRLEEEYGVKVEVEVEVEKNEDGTYFLRIKVTIEGEDREKVEKAANEVVDLLEKLADEYGAAMIISIEFEEL
B2: LC3A_16_522 (protein)
chain: QAELQQKLELLQAASAALDSDEAEFVALLIALDPARAAEIRAAAATPTARERLARLAAEIAAELLEQLKKEGTPEQQATAENIRTLFEVEADLHAVRAEE
B3: LC3A_102_134 (protein)
chain: EEEKVLKKALERARKEIEKHAEERPELTEEEKKKLIELSEKAIEAAAKSAITYKKHGFVDLEAESKMLEALEEIEKMDPEAAKITRKVIEELEKEIEKLY
B4: LC3A_132_268 (protein)
chain: SEELLKKALEELKELLDKIVELLKEGKDPSPQIKKLEEKAEEYAEKLSLEETEKLVRESIEYAEKLFKEKLDPNNKEAIRTLDIIEMLLEGVLIEKELRS
B5: LC3A_59_2017 (protein)
chain: MAEIEAVRERLRAAADDIDAFVAIVREALERFRDDPEKRRALIDAVMEVIGEELNADEDELEKLREEMLALIDSGKPWEEVIAEITDLVRELLLLIPIEE
B6: LC3A_141_378 (protein)
chain: KTETRTYELKDLPADEAEKKGIEKVKELFEKAKKEGAKTIKINITVEATVNGKTHKEEDTLEGPVENESIEGGAEVFLGLVALKYEGEKLNVTITATFTF
B7: LC3A_28_638 (protein)
chain: MTIEEEIERLLEEAKAAAEAGESKVLTLTVPGDSDEEDIELIIEKLEEVAEILKDLPSTSIIIDVDGDVPQEHIDLLADKADEIEEKYPNVTVIIALDEK
B8: LC3A_28_725 (protein)
chain: NELEESIEKALKKAKELAEKGKSDVIEITIPGNATQEDIEKVIKALEEIAEIVKDLESVSIVIDVEGGVKQEHIDKLADKAEEIEKKYPNVTVIIALDED
B9: LC3A_free_39_2239 (protein)
chain: SKEEIEALIKEVAKESGLPYEEVRAKVEEIKEVAGLSDEQILKIVKAILEAVKAGADAKEILEESLAIAKELKAQGKSPEEILEAILEHIEDMRNLVPLD
B10: LC3A_28_740 (protein)
chain: SALEEQLAAALARAREAAAAGESAVIEITVPGDADEEDIEKVIKALEEIAAILADTPDQAIVINIEGGVKEEHINKIADAAEEIEAKYPNVTVILALDEE
B11: LC3A_3_1573 (protein)
chain: KEEKLKAYIEKLRKAGFSEEVIEAARKALEALLAKGAEKAADIVLETLLKLKDAPDELLIAFLEDVIALVETDKGSKEELTKKVEELATTFLNEAEIEEL
B12: LC3A_3_1777 (protein)
chain: MEELIEETLEELRRAGKSEETIEAAREAMELLKERGYEEALKTLAEETRELLDIPDEILLDMLEEVLEKLKTEDLSEEEVIEFIKEEAELARNESEIEEL
B13: LC3A_28_854 (protein)
chain: SATEESIEKARAELAAARAAKEPAVITVTVRSDVTEEEVERVIELIDEAAEASKEVPDLALIIDFDGEIDPEHLQRIMDRGEEAEERNPTLTVIFALDEE
B14: LC3A_28_951 (protein)
chain: MSLEERLAAALAEAKAAAAAGEPAVITITVPGDATEEDIEKVIEALEEIAEILKDVKGAAIVIDVEAGVKQEHIDKLADAAEEIEKKYPNVTVIIALDED
B15: LC3A_3_1347 (protein)
chain: MKELIEAAVARLRAAGFSEEVLAAARAAMEALAALGHEEGIERLTEVLLRHRDAPPEHLVEALRNLTAELERNPDLTEEEVRELIELFDSELEIEPLEEE
B16: LC3A_28_1167 (protein)
chain: SKTEKSIEEALKKAKEAAKKKEPTVIEIYVPGGVTEEETEKVIKAIEEIAELLKDIKGSAIVIDIDSGVKQEHIDKIIEKAEEVEEKYPNINVIIALDED
B17: LC3A_127_184 (protein)
chain: ELKKLAEELIKKLEKAIEELQKENYNEEEIKKLLKEAKELAKKAVKLDPSFEPVLKDIEEAQKLFEQLLKAPEEEKESLREHLIMLLDGAIIEVESLLLK
B18: LC3A_free_8_2524 (protein)
chain: SKQEFANKATEVLDELEEKLRKALEELGASRLDILEAEVLVGSIIAEVISLSDKEPEEQLKAIKEGLKDLVEELEKYKETVKKLADEALKKIEEIKKELE
B19: LC3A_102_150 (protein)
chain: LPKETQEKIEKVIEETLKKVEELAKGLPEEERKEALEVAREALEAARRNAITLAQHGYTDIEEEDKIIENLEKLEKISPELAEVVRKAIEEIEKIIKESA
B20: LC3A_28_1114 (protein)
chain: SPIDENLAAALAEARAAAAAGEPVVVTITVSADDTQEDIDKVIATLKEIADILKDVKDAAIIIDLDGKVPQEHLDKLADTAEEIEKKYPNITVIIALDEE
B21: LC3A_28_1001 (protein)
chain: NAIEANLEEVLAQAKEAKEKGEPVVLTIKVSGKATQEDIDKIIEKLEEIAEVLKDIKGAAIIIDIDGKVPQEFIDKIADKAEEIEEKYPNITVIIALDED
B22: LC3A_3_1715 (protein)
chain: MEKIKEEILKTLKEQGKSEETIKAAEELLEALEEKGYEKAAETLLEEVKKLKNVSSEILLAMFEDLLLKVKEENLNEEEVIKEIEEEARVAKNEQEIDDL
B23: LC3A_free_8_2527 (protein)
chain: SVQELVDQLTADLDELEAALVAKAKELGLSQLDINELELAVGEAKIEIIELIDKSKEEILKKLREELKEIIELAKELSPEVAKLAKEKSAEILARAEKMI
B24: LC3A_3_1810 (protein)
chain: MEERIERALEELREAGASEETLEAVREAVELLLEKGYEEAAETFIELALELKHLPSELLLEFAQEVKELVETSDLSEEEITEEIKRIASTVRNEGEIIEL
B25: LC3A_free_46_2293 (protein)
chain: YLVEIDVDVDGLTEEEAKEFVKEFKEKLEEIAKKYGVEVEVEYKISKNEDGTYSVEIKVKVKAPTLEIAQKVKNEIIDAIDELAEKYGASYIISYEIKEA
B26: LC3A_3_1786 (protein)
chain: MEEKKEELLKELKEAGKSEETIEAAREVLDLLIEKGYEEAFETFIEELRKLIDFPDDILLDMLKEVLELLKTNDWSEEEIKKKIKELAELARNEAEIEEL
B27: LC3A_28_1228 (protein)
chain: SHVDEEIERAEAQAEAALAAGEEALITVKVTKETTVEDAKRLMEALERIVERAKGLPAISIVVDVEAGVSQEVIDTIAELGERIEKKFPNVTVIIALDEN
B28: LC3A_28_1073 (protein)
chain: SATEKENEALLAEAKAGREAGEPVVITVVIDENDTDEDIELKLKTIEEIAEILKDVEGAAIIIDLEGERAKSHLDEVADKADELEEKYPNLTVIIALDDE
B29: LC3A_147_511 (protein)
chain: YEVEVDVDIITKDAEEEVIEEFKEIAEELKKKGYEVELEIEVEELENGITYIHVKITVKTETEEEAKEVANYILDKIDEIEEKLKDKILGSMISVEIIKK

target: MAP1LC3A, Q9H492; experiment: median log2 fold change of GCK-ALFA target abundance (FLAG IP / Myc IP barcode read proportion) (log2 ratio); each designed protein is fused to an ALFA-tag nanobody in HEK293 cells to bring the named protein to FLAG-tagged glucokinase (GCK); Myc marks an untargeted standard; higher = target protein stabilised (more abundant); conditions: target protein: 3xFLAG-MCP-GCK-ALFA reporter; HEK293 landing pad (RPLP)
Procedure, shortened: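 Sequencing of reverse-transcribed, amplified circular RNA barcodes from anti-FLAG and anti-Myc immunoprecipitates provided the readout for an ALFA-nanobody-fused binder library recombined into HEK293 landing-pad cells. Those cells were induced with 2 μg mL^−1 doxycycline, transfected with a plasmid expressing a FLAG-tagged target and a Myc-tagged standard, and lysed after 48 h. Target abundance is the per-binder median log2 ratio of FLAG to Myc barcode read proportions. Only barcodes at a proportion of ≥10^−7 in both replicates and binders with ≥3 barcodes per replicate were kept, with a 10^−6 pseudocount added before the two replicates were pooled.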

| Binder | median log2 fold change |
| --- | --- |
| B1 | 0.196 |
| B2 | 0.354 |
| B3 | 0.0657 |
| B4 | 0.248 |
| B5 | 0.0767 |
| B6 | 0.304 |
| B7 | 0.091 |
| B8 | 0.164 |
| B9 | 0.294 |
| B10 | 0.0876 |
| B11 | 0.0873 |
| B12 | -0.0532 |
| B13 | 0.0188 |
| B14 | -0.00138 |
| B15 | 0.334 |
| B16 | -0.386 |
| B17 | 0.188 |
| B18 | -0.575 |
| B19 | 0.0429 |
| B20 | -0.0789 |
| B21 | 0.0763 |
| B22 | 0.262 |
| B23 | 0.0525 |
| B24 | 0.209 |
| B25 | 0.122 |
| B26 | 0.313 |
| B27 | 0.00959 |
| B28 | -0.314 |
| B29 | -0.745 |
